# Reference: PubChem BioAssay (Tox21)
# Values joined by “and” are separate entries in the source; they are usually repeats but may differ in a detail not shown here. Identical values can stand only once. Inconclusive means that the source gave no clear call. Such entries were picked first, then a sample of the others. For some of these results: Where the call is inconclusive, the potency comes from a doubtful curve fit. Active and inactive are the calls of the source. Unless noted, the call rests on the fitted dose curve; in most records, active means well fitted curve in the direction sought with a large enough effect in the repeat runs; inconclusive means weak or mixed curves; inactive means no such curve, though single readings can be large; an effect the other way counts as inactive or inconclusive.
# Experiments:
# [1] = qHTS assay to identify small molecule antagonists of the retinoid-related orphan receptor gamma (ROR-gamma) signaling pathway - cell viability counter screen (AID 1159520); settings: Tet-on RORgamma CHO cells viability, ATP luminescence, 16 h; series mostly up to 92.4 µM; further: nearly all actives have a fitted effect of over 50% in size
# Summary of the method: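 Tet-on ROR gamma CHO cells were given compounds for 2 hr, then doxycycline hyclate at 1 uM final, and incubated 16 hr at 37 C. Viability was measured as ATP content by CellTiter-Glo luminescence.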
# [2] = molecular target: Nuclear receptor ROR-gamma (Homo sapiens) (UniProt P51449); experiment: qHTS assay to identify small molecule antagonists of the retinoid-related orphan receptor gamma (ROR-gamma) signaling pathway (AID 1159521; further: nearly all actives have a fitted effect of over 50% in size); settings: Tet-on RORgamma CHO cells, RORE-luciferase, 16 h; series mostly up to 92.4 µM
# Summary of the method: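 Decreased RORE-driven luciferase luminescence indicates antagonism. Tet-on RORγ CHO cells received compound, then 1 uM final doxycycline 2 h later; signal read after 16 h incubation.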
# [3] = qHTS assay to identify small molecule agonists of the AP-1 signaling pathway (AID 1159526; calls by dose curve; on activation: on the % scale 0 is the no-effect control and ±100 the full control effect); settings: ME-180 AP-1-bla reporter, beta-lactamase FRET ratio, 5 h; activation: at 76.8 µM (top of the series) unless noted
# [4] = molecular target: Retinoic acid receptor RXR-alpha (Homo sapiens) (UniProt P19793); experiment: qHTS assay to identify small molecule agonists of the RXR signaling pathway (AID 1159527; calls by dose curve; further: nearly all actives have a fitted effect of over 35% in size; on activation: on the % scale 0 is the no-effect control and ±100 the full control effect); settings: HEK293T RXRa-UAS-bla, beta-lactamase ratio, 16 h; activation: at 76.8 µM (top of the series) unless noted
# UniProt P19793, sequence (P19793 whole entry, looked up): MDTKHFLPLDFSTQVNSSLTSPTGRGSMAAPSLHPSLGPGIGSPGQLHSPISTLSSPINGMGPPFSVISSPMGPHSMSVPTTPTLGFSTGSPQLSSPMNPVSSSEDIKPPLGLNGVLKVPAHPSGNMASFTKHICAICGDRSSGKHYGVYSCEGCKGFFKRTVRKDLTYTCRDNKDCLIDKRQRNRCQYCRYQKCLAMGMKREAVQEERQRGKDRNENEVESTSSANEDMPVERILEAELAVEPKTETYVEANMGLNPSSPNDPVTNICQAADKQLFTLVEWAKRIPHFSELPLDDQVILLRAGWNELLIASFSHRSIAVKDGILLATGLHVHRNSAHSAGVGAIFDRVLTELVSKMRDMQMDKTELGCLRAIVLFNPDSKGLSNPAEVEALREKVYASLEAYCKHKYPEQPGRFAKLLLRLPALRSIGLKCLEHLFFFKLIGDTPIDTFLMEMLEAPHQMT
# Summary of the method: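 16 hr incubation of compound-treated RXR-alpha-UAS-bla HEK 293T cells (2% charcoal-stripped FBS, 37 C) preceded a 2 hr room-temperature LiveBLAzer FRET substrate step and blue/green fluorescence measurement.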
# [5] = qHTS assay to identify small molecule antagonists of the retinoid acid receptor (RAR) signaling pathway - cell viability counter screen (AID 1159551); settings: C3RL4 cells viability, ATP luminescence (CellTiter-Glo), 6 h; series mostly up to 92.4 µM; further: nearly all actives have a fitted effect of over 35% in size
# Summary of the method: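 ATP-based viability, C3RL4 cells, 6 h at 37 C with 1 uM final retinol co-added after compound; luminescence read 30 min post CellTiter-Glo, RT.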
# [6] = qHTS assay to identify small molecule antagonists of the retinoic acid receptor (RAR) signaling pathway (AID 1159552; further: nearly all actives have a fitted effect of over 50% in size); settings: C3RL4 RARE luciferase reporter, retinol-stimulated, 6 h; series mostly up to 92.4 µM
# Summary of the method: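 C3RL4 RARE-luc cells, overnight plating; retinol 1 uM final added right after compound; 6 hr 37 C; luciferase read at 30 min RT.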
# [7] = qHTS assay to identify small molecule agonists of the endoplasmic reticulum stress response signaling pathway - cell viability counter screen (AID 1159517; calls by dose curve; further: nearly all actives have a fitted effect of over 50% in size); settings: ESRE-bla HeLa viability, CellTiter-Glo luminescence, 5 h; series mostly up to 61 µM
# Summary of the method: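 Steps: seed 1,500 ESRE-bla HeLa cells per well; incubate overnight at 37 C, 5% CO2; add compounds in DMSO for 5 hr; run FRET substrate 2 hr RT; add CellTiter-Glo, wait 30 min, read luminescence.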
# [8] = qHTS assay to identify small molecule agonists of the RXR signaling pathway - cell viability counter screen (AID 1159529); settings: RXR-alpha-bla HEK293T viability, CellTiter-Glo, 16 h; series mostly up to 76.8 µM; further: nearly all actives have a fitted effect of over 50% in size
# Summary of the method: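 In this parallel viability measure, GeneBLAzer RXR-alpha HEK 293T cells (2% charcoal-stripped FBS) were given a 5 hr preincubation, treated with compounds 16 hr at 37 C, and read by CellTiter-Glo luminescence.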
# [9] = qHTS assay to identify small molecule antagonists of the estrogen related receptor (ERR) signaling pathway from Tox21 library - cell viability counter screen (AID 1224834); settings: ERR reporter cells viability, CellTiter-Fluor, 17.5 h; series mostly up to 92.4 µM; further: nearly all actives have a fitted effect of over 30% in size
# Summary of the method: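 Compounds in DMSO were pinned onto ERR cells that had been incubated for 6 h, and the plates were held at 37 C for 17.5 h. CellTiter-Fluor reagent was then added and fluorescence was measured after 30 min.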
# [10] = molecular target: Luciferin 4-monooxygenase (Photinus pyralis) (UniProt P08659); experiment: qHTS assay to identify small molecule inhibitors of firefly luciferase (AID 1224835); further: nearly all actives have a fitted effect of over 25% in size; settings: purified P. pyralis luciferase, luminescence inhibition; series mostly up to 115 µM
# UniProt P08659, sequence (P08659 whole entry, looked up): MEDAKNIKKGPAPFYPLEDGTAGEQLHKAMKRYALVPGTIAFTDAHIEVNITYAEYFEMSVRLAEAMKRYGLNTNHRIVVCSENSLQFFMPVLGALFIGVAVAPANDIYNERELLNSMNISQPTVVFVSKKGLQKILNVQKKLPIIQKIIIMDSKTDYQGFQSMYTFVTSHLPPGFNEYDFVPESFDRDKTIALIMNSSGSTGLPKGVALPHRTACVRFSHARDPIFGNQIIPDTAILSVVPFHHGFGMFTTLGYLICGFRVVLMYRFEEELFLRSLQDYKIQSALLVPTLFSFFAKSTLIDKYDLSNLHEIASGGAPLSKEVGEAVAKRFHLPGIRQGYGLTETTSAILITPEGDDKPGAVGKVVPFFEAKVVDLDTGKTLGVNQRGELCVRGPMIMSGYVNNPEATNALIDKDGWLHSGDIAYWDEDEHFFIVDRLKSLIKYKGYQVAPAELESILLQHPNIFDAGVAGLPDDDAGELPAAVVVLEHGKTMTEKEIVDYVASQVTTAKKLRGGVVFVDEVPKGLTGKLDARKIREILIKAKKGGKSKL
# Summary of the method: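 Biochemical qHTS: compounds run as interplate titrations against purified firefly enzyme, with D-luciferin and ATP each at its KM concentration. Light output recorded by CCD imaging.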
# [11] = qHTS assay to identify small molecule agonists of the retinoic acid receptor (RAR) signaling pathway (AID 1159553); settings: C3RL4 RARE luciferase reporter, agonist, 6 h; activation: at 73.3 µM (top of the series) unless noted
# Summary of the method: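 Quantitative high-throughput format: the Tox21 10K library was tested on C3RL4 RARE-luciferase cells for 6 hr at 37 C and 5% CO2, with luminescence measured after a 30 min room-temperature reagent step.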
# [12] = qHTS assay to identify small molecule agonists of the constitutive androstane receptor (CAR) signaling pathway - cell viability counter screen (AID 1224836); settings: HepG2-CYP2B6-hCAR viability, CellTiter-Fluor, 23 h, PK11195 added to every well; series mostly up to 92.4 µM; further: nearly all actives have a fitted effect of over 45% in size
# Summary of the method: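 Using CellTiter-Fluor, viability of HepG2 cells harbouring hCAR and CYP2B6-2.2kb was measured following 23 h incubation with a 15-concentration compound series plus PK11195 (0.75 uM final).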
# [13] = qHTS assay to identify small molecule agonists of the AP-1 signaling pathway - cell viability counter screen (AID 1159525; calls by dose curve; further: nearly all actives have a fitted effect of over 55% in size); settings: ME-180 (cervical carcinoma) AP-1-bla cells viability, ATP luminescence, 5 h; series mostly up to 76.8 µM
# Summary of the method: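 Same-well cytotoxicity counter screen of the Tox21 10K library in ME-180 cells. The readout is ATP-dependent luminescence after 5 h compound treatment. Data are normalised to DMSO and tetra n-octyl ammonium bromide controls.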
# Potency means the concentration at half of the fitted maximal effect; tags describe the fitted curve by direction and shape or compound fluorescence and quenching.
structure (smiles),measurement,setting,value
C=CCC1=C(C)[C@@H](OC(=O)[C@@H]2[C@@H](C=C(C)C)C2(C)C)CC1=O,Potency,[1],active: 54.5 µM
same,Potency,[2],active: 27.3 µM
same,Potency,[3],inconclusive: 43.6 µM [partial curve]
same,Potency,[4],"inconclusive: 49 µM [falling, partial curve]"
same,Potency,[5],active: 54.5 µM
same,Potency,[6],active: 27.3 µM
CNC(=O)N(C)c1nnc(C(C)(C)C)s1,Potency,[7],"inconclusive: 11 µM [cytotoxic, single point]"
same,Potency,[8],inactive
COP(N)(=S)Oc1ccccc1C(=O)OC(C)C (stereo not given),Potency,[7],inactive
same,Potency,[4],inactive
CCOc1ccc(C(C)(C)COCc2cccc(Oc3ccccc3)c2)cc1,Potency,[7],inactive
same,activation,[4],inconclusive: -28.5%
Clc1ccc(C(Cl)(Cl)Cl)c(Cl)c1,Potency,[7],"inconclusive: 49.3 µM [cytotoxic, partial curve, poor fit]"
same,Potency,[9],"inconclusive: 69.1 µM [cytotoxic, partial curve, poor fit]"
Nc1ccccc1-c1ccccc1,Potency,[7],"inconclusive: 0.434 µM [cytotoxic, single point]"
same,Potency,[4],"inconclusive: 21.7 µM [rising, partial curve, poor fit]"
same,Potency,[6],inactive
same,Potency,[9],"inconclusive: 19.2 µM [cytotoxic, full curve]"
same,Potency,[10],inconclusive: 70.6 µM [inhibitor]
Oc1cc(Cl)c(Cl)cc1Cl,Potency,[1],"inconclusive: 21.7 µM [cytotoxic, partial curve, poor fit]"
same,Potency,[2],"inconclusive: 77 µM [inhibitor, single point] and inconclusive: 48.6 µM [inhibitor]"
same,activation,[3],inconclusive: 16.3% and inconclusive: 16.6%
same,Potency,[9],"inconclusive: 76.3 µM [cytotoxic, single point] and inconclusive: 54.5 µM [cytotoxic, partial curve, poor fit]"
CN1CSC(=S)N(C)C1,Potency,[1],"inconclusive: 13.6 µM [cytotoxic, partial curve] and inconclusive: 19.3 µM [cytotoxic, partial curve]"
same,Potency,[2],active: 964 nM and active: 2.16 µM
same,Potency,[3],inconclusive: 3.46 µM
same,activation,[3],inconclusive: -1.68%
same,Potency,[8],active: 10.9 µM and active: 8.69 µM
same,Potency,[5],"inconclusive: 76.6 µM [cytotoxic, single point]"
same,Potency,[6],"inconclusive: 9.64 µM [inhibitor, full curve, poor fit] and inconclusive: 12.2 µM [inhibitor, full curve, poor fit]"
same,Potency,[11],"inconclusive: 2.72 µM [inhibitor, full curve] and inconclusive: 6.09 µM [inhibitor, full curve]"
same,Potency,[9],active: 6.08 µM and active: 13.6 µM
same,Potency,[12],active: 4.83 µM and active: 15.3 µM
Cc1ccc(OP(=O)(Oc2ccccc2)Oc2ccccc2)cc1,Potency,[7],"inconclusive: 39.5 µM [cytotoxic, partial curve, poor fit]"
same,Potency,[4],"inconclusive: 4.43 µM [inhibitor, full curve]"
CC1(C)[C@H](C(=O)O[C@H](C#N)c2cccc(Oc3ccccc3)c2)[C@@H]1/C=C(\Cl)C(F)(F)F,Potency,[1],"inconclusive: 27.3 µM [cytotoxic, partial curve, poor fit]"
same,Potency,[2],"inconclusive: 40.1 µM [inhibitor, partial curve] and inconclusive: 21.7 µM [inhibitor, full curve]"
same,Potency,[3],inactive
CN(C)C(=S)SSC(=S)N(C)C,Potency,[1],active: 33.9 µM and active: 433 nM and active: 422 nM
same,Potency,[2],active: 85.1 nM and active: 344 nM and active: 266 nM
same,Potency,[13],"inconclusive: 682 nM [cytotoxic, full curve, poor fit] and active: 5.49 µM and active: 9.52 µM"
same,Potency,[5],"active: 67.6 µM and inconclusive: 68.6 µM [cytotoxic, single point] and inconclusive: 29.8 µM [cytotoxic, single point]"
same,Potency,[6],active: 214 nM and active: 306 nM
same,Potency,[11],"inconclusive: 120 nM [inhibitor, full curve] and inconclusive: 19.3 nM [activator, single point] and inconclusive: 106 nM [activator, single point]"
same,Potency,[9],active: 339 nM and active: 433 nM and active: 473 nM
CCC(C)(C)C(=O)OC1=C(c2ccc(Cl)cc2Cl)C(=O)OC12CCCCC2,Potency,[1],"inconclusive: 34.4 µM [cytotoxic, partial curve, poor fit]"
same,Potency,[2],inactive
same,Potency,[3],"inconclusive: 1.95 µM [activator, full curve]"
same,Potency,[8],inactive
same,Potency,[11],"inconclusive: 30.6 µM [activator, partial curve, poor fit]"
CC(C)=CC1C(C(=O)OCc2coc(Cc3ccccc3)c2)C1(C)C (stereo not given),Potency,[1],"inconclusive: 68.7 µM [cytotoxic, partial curve, poor fit]"
same,Potency,[2],"inconclusive: 54.4 µM [inhibitor, partial curve, poor fit]"
same,Potency,[3],inconclusive: 61.8 µM
same,Potency,[8],"inconclusive: 15.5 µM [cytotoxic, full curve] and inconclusive: 19.5 µM [cytotoxic]"
same,Potency,[11],"inconclusive: 48.6 µM [inhibitor, partial curve]"
